In the supplement of paper PMC4166925:
± gives the standard deviation of the averaged measurements. Whole data set: some 33,000 sequences, median “E-score (dimensionless, -0.5 to 0.5)” near -0.046, cut for the highest 2% near 0.36. This is one part of the list.

System: T1, SpTbr T-box DNA-binding domain (GST fusion)
T1 sequence: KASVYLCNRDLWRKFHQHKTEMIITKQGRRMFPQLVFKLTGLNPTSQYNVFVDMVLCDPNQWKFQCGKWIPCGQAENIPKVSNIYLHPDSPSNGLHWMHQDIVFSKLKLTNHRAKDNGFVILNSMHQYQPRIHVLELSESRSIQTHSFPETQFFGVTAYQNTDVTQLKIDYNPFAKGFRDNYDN
Test: PBM E-score of 8-mer (E-score (dimensionless, -0.5 to 0.5)); Tbr is Tbrain of the sea star Patiria miniata (Pm) or the sea urchin Strongylocentrotus purpuratus (Sp); higher = stronger binding preference; most listed sequences are background and not binding sites
Conditions: the construct has about 5 more residues each side
Description: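 Universal protein-binding microarray (Agilent AMADID 016060, 60-bp probes with a 35-bp variable region) incubated with 200 nM GST-fused Strongylocentrotus purpuratus Tbr T-box DNA-binding domain (residues 362-554) in PBS pH 7.5. Scored for every ungapped 8-mer (given with its reverse complement) as E-score (range -0.5 to 0.5; >0.45 counts as bound) and Z-score of median probe intensity. Two replicate arrays (datasets 1 and 2).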
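Further: protein at 200 nM in PBS on universal double-stranded arrays.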

Row | Sequence | PBM E-score of 8-mer
1 | GGAAACAA | -0.0459 ± 0.05
2 | CCAAACAA | -0.0308 ± 0.027
3 | ACACCATG | 0.364 ± 0.0073
4 | CCGCCCGC | 0.0723 ± 0.021
5 | ATTATTGC | -0.195 ± 0.15
6 | CCTTGTAA | 0.0056 ± 0.066
7 | AAGCCTCG | 0.0181 ± 0.0013
8 | GATCAGAC | -0.265 ± 0.028
9 | TAGATTAA | -0.128 ± 0.053
10 | CCCCTGTA | -0.0431 ± 0.026
11 | CAATCAAA | -0.117 ± 0.077
12 | AACAATCC | 0.00562 ± 0.014
13 | ACACTAAT | 0.176 ± 0.046
14 | CGGCTGTC | 0.006 ± 0.019
15 | CCCGGCTC | -0.317 ± 0.0087
16 | CCTTCGAA | 0.022 ± 0.024
17 | CGAGCGTC | -0.0797 ± 0.014
18 | AGACTCTA | -0.232 ± 0.0089
19 | CCCAACAC | 0.343 ± 0.013
20 | ACTATAAT | -0.221 ± 0.037
21 | CACTATGA | 0.105 ± 0.0092
22 | AGGAAATC | -0.184 ± 0.037
23 | ACGTTGCG | 0.209 ± 0.06
24 | CCACAAAA | 0.163 ± 0.067
25 | CCTGTAAC | 0.175 ± 0.055

Row | Sequence | PBM E-score of 8-mer
26 | GCCATAGC | -0.08917 ± 0.00081
27 | AAATCATC | 0.138 ± 0.11
28 | AGACTCTG | -0.182 ± 0.024
29 | AAAAATGT | 0.0827 ± 0.086
30 | AATGATCC | -0.164 ± 0.052
31 | AGAACAAG | 0.0269 ± 0.081
32 | AAGTAGCT | -0.102 ± 0.019
33 | GTTGTATA | -0.209 ± 0.066
34 | AAGAGGCA | -0.157 ± 0.044
35 | CCAAGCAA | 0.0499 ± 0.028
36 | CACGTGCC | 0.285 ± 0.051
37 | AGTTAGAG | -0.215 ± 0.038
38 | CTGTTTCC | -0.0707 ± 0.063
39 | GTTAGTGA | 0.195 ± 0.032
40 | AGAATTGA | 0.0245 ± 0.021
41 | ACGTGTGC | 0.253 ± 0.017
42 | AAAGTCGG | -0.174 ± 0.071
43 | TTATCCAA | 0.0187 ± 0.056
44 | GACGGAAC | -0.196 ± 0.05
45 | AGCAGTGG | -0.177 ± 0.025
46 | AGGTCTGA | -0.252 ± 0.012
47 | CTGCGACC | 0.159 ± 0.038
48 | AACGCCGA | 0.0424 ± 0.05
49 | AGCGGAAC | -0.168 ± 0.02
50 | GGACAATA | -0.222 ± 0.074

Row | Sequence | PBM E-score of 8-mer
51 | ATAGCGGA | 0.0361 ± 0.014
52 | CTAGCTTA | -0.0478 ± 0.054
53 | ACTCGAGG | 0.0677 ± 0.028
54 | AGAAAAAT | -0.076 ± 0.086
55 | CCTTGCCG | -0.0413 ± 0.053
56 | GACAGCGC | 0.0549 ± 0.0097
57 | CTTTCATC | -0.107 ± 0.065
58 | TCATACGA | 0.0298 ± 0.072
59 | CGCGGCCC | -0.0783 ± 0.14
60 | GAGCTGAC | 0.103 ± 0.0062
61 | CGGAAGAC | -0.014 ± 0.058
62 | CTTTAGCA | 0.147 ± 0.041
63 | GCCTTAAA | -0.175 ± 0.031
64 | ACATGTGG | -0.00104 ± 0.016
65 | AAGTTGGA | -0.131 ± 0.024
66 | CGTTAGGA | -0.0398 ± 0.0099
67 | CGGTTTAA | -0.116 ± 0.0054
68 | CATCAGAC | -0.104 ± 0.011
69 | CACTATTA | 0.157 ± 0.0049
70 | ACGCCCAT | 0.0516 ± 0.054
71 | ACCCATGG | -0.159 ± 0.011
72 | CGATATTA | 0.00962 ± 0.058
73 | CCATGAGG | -0.123 ± 0.004
74 | GCAGAAAA | -0.136 ± 0.033
75 | ATTACTGC | -0.00142 ± 0.047

Row | Sequence | PBM E-score of 8-mer
76 | GTAGAGAA | -0.1514 ± 0.0013
77 | AGCTCCCA | -0.294 ± 0.068
78 | ACCGTGCA | -0.0602 ± 0.027
79 | AAAAACTC | -0.0504 ± 0.074
80 | CCAGAATA | -0.11 ± 0.0078
81 | AACATCTA | -0.0476 ± 0.027
82 | CCAACTAA | 0.000295 ± 0.015
83 | CACGGTCC | 0.0289 ± 0.043
84 | CCACTTCA | 0.108 ± 0.019
85 | CAGATTCA | -0.215 ± 0.006
86 | ACCCTTCC | -0.0367 ± 0.018
87 | GTGGTAAA | 0.243 ± 0.0035
88 | GATTCTGC | -0.189 ± 0.022
89 | GCGATCGA | 0.116 ± 0.055
90 | ATCAAACG | -0.0175 ± 0.066
91 | ACTTCGGC | 0.0408 ± 0.011
92 | ATTGAAAA | -0.199 ± 0.012
93 | ATCCCGAT | -0.127 ± 0.043
94 | GCTAATTA | 0.072 ± 0.084
95 | GAGTTTGC | -0.0217 ± 0.089
96 | CTAAGCTC | -0.159 ± 0.026
97 | ACGGCCCT | -0.129 ± 0.0058
98 | ATGGTGCG | 0.206 ± 0.037
99 | CACTTAAG | 0.223 ± 0.03
100 | GCCCATGA | -0.12 ± 0.051

Row | Sequence | PBM E-score of 8-mer
101 | GCACGCCC | 0.155 ± 0.069
102 | AATCATGT | -0.135 ± 0.015
103 | GGTCCTCA | -0.0127 ± 0.016
104 | AATGGCAG | -0.0149 ± 0.021
105 | AGGTGACA | 0.469 ± 0.015
106 | ACATAACA | 0.292 ± 0.0069
107 | ATATTTGA | -0.174 ± 0.076
108 | ATGCCTTA | -0.254 ± 0.043
109 | AGTCACCA | 0.0942 ± 0.023
110 | CCCGTCTA | -0.134 ± 0.058
111 | GAGGGGAC | -0.161 ± 0.019
112 | CGATTAAC | 0.108 ± 0.048
113 | CATTACCG | -0.044 ± 0.0016
114 | ACAGACCG | -0.146 ± 0.013
115 | ACACATCA | 0.339 ± 0.0072
116 | TCTGGACA | -0.143 ± 0.011
117 | ACTGTCTC | -0.0736 ± 0.085
118 | ACTTAAGT | -0.0767 ± 0.13
119 | ACAGAGCG | -0.0733 ± 0.05
120 | ATTGTGCG | 0.181 ± 0.0048
121 | AGGATTCG | -0.148 ± 0.047
122 | AGCTTCGA | -0.102 ± 0.066
123 | CATGAGTA | 0.0509 ± 0.0025
124 | ATCACAGC | 0.245 ± 0.018
125 | AATGGGCC | -0.182 ± 0.016

Row | Sequence | PBM E-score of 8-mer
126 | CCCTGATC | -0.0811 ± 0.027
127 | CTGTCATA | 0.122 ± 0.036
128 | ACCGGTCG | 0.0125 ± 0.092
129 | CCCATCAC | 0.189 ± 0.031
130 | CGAGAAGC | -0.0137 ± 0.029
131 | CCTGCTAC | 0.138 ± 0.06
132 | ACTCCGCA | -0.0236 ± 0.023
133 | ACAGAACA | -0.0577 ± 0.043
134 | TAGGCGCA | 0.118 ± 0.0051
135 | CCATGGCA | 0.000675 ± 0.061
136 | GCGGAGTA | -0.147 ± 0.037
137 | ACCCGGGA | 0.0278 ± 0.017
138 | CACAATCG | 0.213 ± 0.012
139 | GAAACAGC | -0.0216 ± 0.11
140 | CCGCTAAC | 0.16 ± 0.031
141 | AGGTTACT | -0.22 ± 0.055
142 | CAATATCA | 0.0789 ± 0.05
143 | GTCAGAAC | -0.147 ± 0.006
144 | CAGCGGAA | -0.252 ± 0.074
145 | GGAGTTAC | 0.0424 ± 0.025
146 | GACGATTA | 0.0572 ± 0.03
147 | CCGACCCG | -0.073 ± 0.13
148 | GAAGACGC | -0.00475 ± 0.024
149 | CACCCCGG | 0.277 ± 0.018
150 | AATCACAC | 0.457 ± 0.011

Row | Sequence | PBM E-score of 8-mer
151 | CTATCTTA | -0.208 ± 0.056
152 | GCTAAATA | 0.0681 ± 0.093
153 | CCGGGTGC | 0.26 ± 0.058
154 | CAAATGTA | -0.206 ± 0.029
155 | CTCAACAG | -0.0158 ± 0.036
156 | GGTCGGAA | 0.0715 ± 0.041
157 | AGGACGTA | -0.147 ± 0.024
158 | ATGCACAG | -0.189 ± 0.041
159 | AAAACAGG | -0.046 ± 0.043
160 | CAGTCAAC | 0.0846 ± 0.028
161 | CAGTTTTC | 0.00318 ± 0.023
162 | AGCCTGAG | -0.0927 ± 0.018
163 | AGACAACC | -0.151 ± 0.058
164 | AATGTCAA | 0.0456 ± 0.097
165 | CATTAAGA | -0.175 ± 0.03
166 | AGCAGCCC | -0.138 ± 0.068
167 | ACATAAAG | -0.107 ± 0.029
168 | GGGCTCTA | -0.127 ± 0.064
169 | TATGCAGA | -0.00494 ± 0.043
170 | ACAGGTTC | 0.154 ± 0.0024
171 | AAGTAGGA | 0.0305 ± 0.051
172 | CGATACCG | 0.00715 ± 0.0048
